Measured values reported in publication PMC7819943, “Rice protein-binding microarrays: a tool to detect cis-acting elements near promoter regions in rice”.
This is one part of the list.

Biological target: T1, OsWOX13 (Oryza sativa, UniProt Q5QMM3 1-267)
T1 sequence: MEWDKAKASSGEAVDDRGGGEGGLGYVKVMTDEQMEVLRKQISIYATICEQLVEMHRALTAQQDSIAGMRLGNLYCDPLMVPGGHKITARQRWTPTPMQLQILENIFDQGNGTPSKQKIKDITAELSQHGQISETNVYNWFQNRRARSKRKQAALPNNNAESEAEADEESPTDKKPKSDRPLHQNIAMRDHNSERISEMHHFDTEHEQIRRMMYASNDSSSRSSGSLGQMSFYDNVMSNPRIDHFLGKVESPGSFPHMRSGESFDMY
Experiment: protein-binding microarray (RPBM); PBS, 2% BSA, 51.3 ng/ul salmon testes DNA, 50 uM zinc acetate, 200 nM TF, 25 C, 1 h; high values mean tight binding
Details: protein: recombinant; tags: N-terminal polyhistidine and DsRed monomer fusion (pET32a); label: CyDye5-dUTP incorporated in the synthesized complementary strand; 3' TTTTT single-stranded linker to array surface; dsDNA, one strand shown
How it was run: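 Binding signal here means per-feature fluorescence intensity in arbitrary units. The values were read on an Axon 4000B scanner after a custom Agilent array, double-stranded by primer extension with Cy5-dUTP, was incubated with 200 nM protein at 25 °C for 1 h in PBS with 2% BSA, salmon testes DNA and 50 µM zinc acetate, then washed. The proteins were transcription factors with an N-terminal polyhistidine tag and DsRed, expressed in E. coli BL21-CodonPlus and purified on Ni–NTA.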

Row | Sequence | binding signal
1 | TCTAATTATATGATATTTTAATGGATTATCCCTCGATAAGCGGAGTCACCTAGTGCAG | 27400 fluorescence intensity (a.u.)
2 | CAATGGAGTTAATTGTTGCAAATCCTACATTGGTGAATATCGGAGTCACCTAGTGCAG | 8970 fluorescence intensity (a.u.)
3 | AAAATTCTGAACTAACTAATTGGTAATACAAATCCATTCTCGGAGTCACCTAGTGCAG | 10700 fluorescence intensity (a.u.)
4 | CTTATGTTAATTATTGTTATTATCTAAAACTAACAGATTACGGAGTCACCTAGTGCAG | 24200 fluorescence intensity (a.u.)
5 | ATACCCTTGTTAATTAGGTACTCTAATTTTCTTTGCGTGTCGGAGTCACCTAGTGCAG | 13400 fluorescence intensity (a.u.)
6 | ACTTGTAGTTGACCCGCAAATTAGTGCTGCTTAATTTATACGGAGTCACCTAGTGCAG | 3640 fluorescence intensity (a.u.)
7 | GGATTCTAATTGTCCTTGTAAATTGTACACAGGACAATACCGGAGTCACCTAGTGCAG | 5320 fluorescence intensity (a.u.)
8 | GATCTAATGATGCGTTCAATCTAGTTTACATCTGCAATGTCGGAGTCACCTAGTGCAG | 8640 fluorescence intensity (a.u.)
9 | ACAAAGTAATTGATTTCTTGTGTGAGGCCTTGTTTAGATCCGGAGTCACCTAGTGCAG | 53400 fluorescence intensity (a.u.)
10 | GTGATTGAGTTTGAATGTAAGCAACTTCTAACGATAGTGCCGGAGTCACCTAGTGCAG | 42200 fluorescence intensity (a.u.)
11 | ATTCAATAAATCTATCTGTATGTCTATCTATCTTCTACTCCGGAGTCACCTAGTGCAG | 4010 fluorescence intensity (a.u.)
12 | TATGTAGATATAGATTGGCTGCTCAAATCTTTTCGCGATTCGGAGTCACCTAGTGCAG | 11100 fluorescence intensity (a.u.)
13 | TTTAAACTGGCTGTGACTACATGAAATCATATGAAATCAGCGGAGTCACCTAGTGCAG | 16600 fluorescence intensity (a.u.)
14 | AGGGAATTTTATGATTTGCATTGGTGCTGAGGTCAAACCCCGGAGTCACCTAGTGCAG | 7180 fluorescence intensity (a.u.)
15 | TATAATTTTAAGCTACACAGACAAATCTAAATACGGTAAACGGAGTCACCTAGTGCAG | 6900 fluorescence intensity (a.u.)
16 | CCAAAATTTACCCAATATAACGGCCCATTTACGACATTCCCGGAGTCACCTAGTGCAG | 4610 fluorescence intensity (a.u.)
17 | ATTTGGTGTTTGTGATTGAGTTCGTTTATTTCGAGAAATGCGGAGTCACCTAGTGCAG | 16900 fluorescence intensity (a.u.)
18 | GCTGTTAATTAAGCAGCAGAAGAAGTAGCAGCTTAGCTGCCGGAGTCACCTAGTGCAG | 6420 fluorescence intensity (a.u.)
19 | AGCCAAATTACCATGTCTTTTCAAGCATGTCTATGGGAACCGGAGTCACCTAGTGCAG | 5530 fluorescence intensity (a.u.)
20 | TTTAAATTTAACTAAGTTTATAAATAAATATAATAATATTCGGAGTCACCTAGTGCAG | 3320 fluorescence intensity (a.u.)
21 | AATCTAATTTAATTAGGATATAGATCTAGCAATGCTGTTTCGGAGTCACCTAGTGCAG | 36400 fluorescence intensity (a.u.)

Row | Sequence | binding signal
22 | TGATTGTTTCATTAATTAGCCTGTTTTGTCTGTAAATACTCGGAGTCACCTAGTGCAG | 6690 fluorescence intensity (a.u.)
23 | CTTTGAAATTGCGTAATATCAAAATTGCATCTATTTTATCCGGAGTCACCTAGTGCAG | 4430 fluorescence intensity (a.u.)
24 | AGCTATCCAGAAATTAATTACTAGTCACAATTGCCACTTCCGGAGTCACCTAGTGCAG | 10200 fluorescence intensity (a.u.)
25 | ATTATACATTTGATCAATTATTATACACTGGTTCTCAAAACGGAGTCACCTAGTGCAG | 13500 fluorescence intensity (a.u.)
26 | ACTTAAATTGAAATTGGGTTTGTTGGATCTTCAGCATAGCCGGAGTCACCTAGTGCAG | 30000 fluorescence intensity (a.u.)
27 | ACTTCTTCTACGTGATTTCCTGATTCGCCTCATCCGCTTCCGGAGTCACCTAGTGCAG | 3770 fluorescence intensity (a.u.)
28 | GAGGGAGTACTAATTAATTAAACGCGGTTGCTTTCTCGCCCGGAGTCACCTAGTGCAG | 15400 fluorescence intensity (a.u.)
29 | TAATTTAAATTTATTTAAACATGACTACTCGATTGCCATGCGGAGTCACCTAGTGCAG | 30400 fluorescence intensity (a.u.)
30 | CTTCCAATCGTCAATGTCTGATTTTGTCGTTGGCGTGTAACGGAGTCACCTAGTGCAG | 9800 fluorescence intensity (a.u.)
31 | CTTAACTAATCATATGCTGCTAATGACTTATCCTGCGGTGCGGAGTCACCTAGTGCAG | 33700 fluorescence intensity (a.u.)
32 | ACAGTTACATGATTAAATGGTCTTCTTGAATTTTGCGGTGCGGAGTCACCTAGTGCAG | 13700 fluorescence intensity (a.u.)
33 | ATTGGTAGTCATAATTAATTAGACCACGATGCCCTCTAAACGGAGTCACCTAGTGCAG | 14000 fluorescence intensity (a.u.)
34 | CCGATTTCTATATAATTTCGATTAACGCCACGCCATGCCACGGAGTCACCTAGTGCAG | 6100 fluorescence intensity (a.u.)
35 | ATAATCAAAGAATTAATCAGGATAGGATGGCACGAATCTTCGGAGTCACCTAGTGCAG | 4980 fluorescence intensity (a.u.)
36 | CTTCACCCACCAAGATTTAAATTATGGTGTAACCACAAATCGGAGTCACCTAGTGCAG | 3500 fluorescence intensity (a.u.)
37 | AATAATACGTGATTAATTAAATTTTAATTATTATAAACTTCGGAGTCACCTAGTGCAG | 25600 fluorescence intensity (a.u.)
38 | ACGTAATGACATGTAAAGCGTTATGTAGATGCCACGTGGACGGAGTCACCTAGTGCAG | 4580 fluorescence intensity (a.u.)
39 | TACTTCAATGATTTAATTAAGGATAGCTTGCAGCTTAACTCGGAGTCACCTAGTGCAG | 14800 fluorescence intensity (a.u.)
40 | AATATATGATTTTGTTTGGGTGCTAGCCGCGCAAATGCGCCGGAGTCACCTAGTGCAG | 3950 fluorescence intensity (a.u.)
41 | GGATGATAGTTGATGGATGAATATGTGATGGAGACATGGACGGAGTCACCTAGTGCAG | 24900 fluorescence intensity (a.u.)
42 | TGCTAGATTTAATTAAACTAATTTGGTGTTTAAAATGTTACGGAGTCACCTAGTGCAG | 36100 fluorescence intensity (a.u.)
